From the RNAGym collection of RNA variant scans (doi:10.1093/nar/gkz1192)
Read counts are not given, so values of variants with three or more changes are uncertain.

B1: CPEB3 Ribozyme (parent)
chain: UAACAGGGGGCCACAGCAGAAGCGUUCACGUCGCAGCCCCUGUCAGAUUCUGGUGAAUCUGCGAAUUCUGCUGUAUAUCUC

Variants of: B1
Assay: self-cleavage, relative activity (ratio to wild type); higher = more cleavage; in vitro, sequencing
In short: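 Relative activity was defined as the cleaved/total read fraction for a variant divided by the same fraction for the unmutated ribozyme. CPEB3 self-cleaving ribozyme libraries were made by rounds of error-prone PCR, barcoded, and transcribed in vitro with T7 RNA polymerase for 5 hours at 37°C, and cleavage ran through transcription plus a 15 min DNase I step before EDTA. Illumina sequencing of template-switched reverse transcripts gave the reads, and DNA sequencing mapped the barcodes. Averages come from three batches, using variants with at least 5 reads.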
For UAACAGGGGGCCACAGCAGAAGCGUUCACGCCGCAGCCCCCGUCAGUUUCUGGUGAAUCUGCGAAUUCUGCAGUAUACCUC, the self-cleavage was 0.12. UAACAGGGGGCCACAGCAGAAGCGUUCACGCCGCAGCCCCUGUCAGAUUCUGGUGAAUCUGCCAUUUCUGCUGUAUAUCCC gave a self-cleavage of 0.18. Work on UAACAGGGGGCCACAGCAGAAGCGUUCACGCCGCAACCCCUGACAGAUUCUGGUGAAUCUGCGAAUUCUGCAAUAUAUCUC yielded a self-cleavage of 0.56. UAACAGGGGGCCACAGCAGAAGCGUUCACGCCGCAGCCCCUAUCAGAUUCUGGUGAAUCUGCGGAUACUGCUGUAUAUCUC showed a self-cleavage of 0.12. For UAACAGGGGGCCACAGCAGAAGCGUUCACGCCUCAGCCCCUGUCAGAUUCUGGUGAAUCUGCGAAUUCUGCUGCAUAUCUC, the self-cleavage was 0.27. With UAACAGGGGGCCACAGCAGAAGCGUUCACGCCGCAGCCCCUGCCAGAUUCUGGUGAAUCUGCGAGUUCUGCUGUAUAUCUC the self-cleavage was 0.19. In the case of UAACAGGGGGCCACAGCAGAAGCGUUCACGCCGCAGCCCCUGACCGAUUCUGGUGAAUCUGCGAAUUCAGCUGUAUAUCUC, the self-cleavage is reported as 0.28. For UAACAGGGGGCCACAGCAGAAGCGUUCACGCCGCAGCCCCUGUCAGAUUCUAGUGAAUCUGCGAGUUCUGCUGUAUAUCUC, the self-cleavage was 0.29. Variant UAACAGGGGGCCACAGCAGAAGCGUUCACGCCGCAGCCCCUGUCAGAUUCUAGUGAAUCUGCGAUUUCUGCUGUAUAUCUC has a self-cleavage of 0.44. Variant UAACAGGGGGCCACAGCAGAAGCGUUCACGCCGCAGCCCCUGCGAGGUUCUGGUGAAUCUGCGAAUUCUGCUGUAUAUCUC has a self-cleavage of 0.21. In the case of UAACAGGGGGCCACAGCAGAAGCGUUCACGCCGCAGCCCCUGUCAGAUUCUCGCGAAUCUGCGAAUUCUGCUGUAUAUCUC, the self-cleavage is reported as 0.98. For UAACAGGGGGCCACAGCAGAAGCGUUCACGCCACGGCCCCUGUCGGAUUCUGGUGAGUCUGCGAACUCUGCUGUAUAUCCC, the self-cleavage was 0.08. Work on UAACAGGGGGCCACAGCAGAAGCGUUCACGCCGCAGCCCUUGUCAGAUUCUGGUGAAUCAGCGAAUUCCGCUGUAUAUCUC yielded a self-cleavage of 0.11. Work on UAACAGGGGGCCACAGCAGAAGCGUUCACGCCGCAGCCCCUGUCAGAUUCUGGUGAAUCUGCGAAUUCUGUCGUAUAUCUC yielded a self-cleavage of 0.16. For UAACAGGGGGCCACAGCAGAAGCGUUCACGCCGCACCCCCGGUCAGAUUCUGGUGAAUCUGCGAAUUCUGCUGUAUAUCUC, the self-cleavage was 0.4. Work on UAACAGGGGGCCACAGCAGAAGCGUUCACGCCGCAGCCCCCGUCAGAUUCUGGUGAAUCUGCGCAUUCUGCUGUAUAUCUC yielded a self-cleavage of 0.45. UAACAGGGGGCCACAGCAGAAGCGUUCACGCCGCAGCCCCUGUCAGAUUCUGGUGAAUCUGCGAAUUCUGGUGUAUAUAUC gave a self-cleavage of 0.17. UAACAGGGGGCCACAGCAGAAGCGUUCACGCCGCAUCCCCUGGCAGAUUCCGGUGAAUCUGCGAAUUCUGCUGUAUAUCUC showed a self-cleavage of 0.11. UAACAGGGGGCCACAGCAGAAGCGUUCACGCCGCAGCCCCAGUCAGAUACUGGUGAAUCUGCGAAUUCUGCUGUAUAUCUC gave a self-cleavage of 0.27. UAACAGGGGGCCACAGCAGAAGCGUUCACGCCGCAGCCCCUGUCAGAUUCUGGUGAAUAUGCGCAUUCUGCUGUAUAUCUC gave a self-cleavage of 0.09. With UAACAGGGGGCCACAGCAGAAGCGUUCACGCCGCAGCCCCUAUCAGGUUCUGGUGACUCUGCGAAUUCUGCUGUGUAUCUC the self-cleavage was 0.04. Variant UAACAGGGGGCCACAGCAGAAGCGUUCACGCCGCAGCCCCAGUCAGAUUCUGGUGAAUCUGGGAAUUCCGCUGUAUAUCUC has a self-cleavage of 0.08. Variant UAACAGGGGGCCACAGCAGAAGCGUUCACGCCGCAUCCCCUGCCACAUUCUGGUGAAUCUGCGUAUUCUGCUGUAUAUCUC has a self-cleavage of 0.12. UAACAGGGGGCCACAGCAGAAGCGUUCACGCCGCAGCCCCUGUCAAAUUCUGGUGAAUCUGCGAAUUCUGCUGUGUAUCUC gave a self-cleavage of 0.37. Variant UAACAGGGGGCCACAGCAGAAGCGUUCACGCCGCAGCCCCCGCCAGAUUCUGGUGGAUCUGCGAAUUCUGCUGUAUAUCUC has a self-cleavage of 0.14. In the case of UAACAGGGGGCCACAGCAGAAGCGUUCACGCCGCAGCCCCCGUCAGGUUCUGGUGAAUCUGCGAAUUCUGCUGCAUAUCUC, the self-cleavage is reported as 1.16. For UAACAGGGGGCCACAGCAGAAGCGUUCACGCCGCAGCCCCUGACAGAUUCCGGUGAAUCUGCGAAUUCUGCUGUAUAUCUC, the self-cleavage was 0.8. Work on UAACAGGGGGCCACAGCAGAAGCGUUCACGCCACUGCCCCAGUCAGACUCUGGUGAAUCUGCGAAUUCUGAUGUAUAUCUC yielded a self-cleavage of 0.07. In the case of UAACAGGGGGCCACAGCAGAAGCGUUCACGCCACAGCCCCUGUCUGAUUCUGGUGAAUCUGCGAAUUCUGCUGUAUAUCCC, the self-cleavage is reported as 0.37. For UAACAGGGGGCCACAGCAGAAGCGUUCACGCCUCAGCCCCUGUCAGAUUCUGGUGAAUCUGCGAAUUCUGCUGUAUACCUC, the self-cleavage was 0.18. In the case of UAACAGGGGGCCACAGCAGAAGCGUUCACGCCACAGCCCCUGUCAGAUUCUGGUGAAACUGCGAAUUCUGCCGUAUAUCUC, the self-cleavage is reported as 0.1. Work on UAACAGGGGGCCACAGCAGAAGCGUUCACGCCGCAGCCCCAGUCAGAUUCUGGUGAAUCUGCGAAUUCUGCUGUAUAUCGC yielded a self-cleavage of 0.11. With UAACAGGGGGCCACAGCAGAAGCGUUCACGCCGCACCCCCUGUCAGAUUCUGGCGAAUCUGCGAAUUCUGCUGUAUAUCUC the self-cleavage was 0.11. UAACAGGGGGCCACAGCAGAAGCGUUCACGCCGCAGCCCCCGUCAGAUUCUGAUGAAUCUGCGAAUUCUGCUGUAUAUCUC gave a self-cleavage of 0.74. Variant UAACAGGGGGCCACAGCAGAAGCGUUCACGCCGCAGCCCCUGUCAGAUUCUGGUGAAUCUGUGAAUUCUGCGGUAUAUCUC has a self-cleavage of 0.41. Work on UAACAGGGGGCCACAGCAGAAGCGUUCACGCCGCAGCCCCCGUCAGAUUCUGGUGAAUCUGCGAACUCUGCUGUAUAUCUC yielded a self-cleavage of 0.21. Variant UAACAGGGGGCCACAGCAGAAGCGUUCACGCCGCAGCCCCCGUCAGAUUCUGGCGUAUCUGCGAAUUCUGCUGUAUAUCUC has a self-cleavage of 0.19. UAACAGGGGGCCACAGCAGAAGCGUUCACGCCGCAGCCCUUGUCAGAUUCUGGUGAAUCUGCGAAUUCUGCUGUAUAUCCC gave a self-cleavage of 0.83. For UAACAGGGGGCCACAGCAGAAGCGUUCACGCCGCAGCCCCUGCCAGUUUCUGGUGAAUCUGCGAAUUCUGCUGUAUAUCUC, the self-cleavage was 0.07. For UAACAGGGGGCCACAGCAGAAGCGUUCACGCCUCAGCCCCAGUCAGAUUCUGGUGAAUCUGCGAAUCCUGCUGUAUAUAUC, the self-cleavage was 0.02. For UAACAGGGGGCCACAGCAGAAGCGUUCACGCCACAGCCCCUGUCAGAUUCUGGUGUAUCUGCGAAUUCUGCUGUAUAUCUC, the self-cleavage was 0.15. UAACAGGGGGCCACAGCAGAAGCGUUCACGCCACAGCCCCUGUCAGAUACUGGUGAACCUGCGAAUUCUGCUGUAUAUCUC gave a self-cleavage of 0.13. For UAACAGGGGGCCACAGCAGAAGCGUUCACGCCGCAGCCCCUGUCAGAUUCUGGUGAAUUUGCGAAUUCCGCUGUGUAUCUC, the self-cleavage was 0.28. For UAACAGGGGGCCACAGCAGAAGCGUUCACGCCACAGCCCCAGUCAGAUUCUGGUGAAUCUGCGGAUUCUGCUGUAUAUCUC, the self-cleavage was 0.16. For UAACAGGGGGCCACAGCAGAAGCGUUCACGCCGCAGCCCCUGACGGAUUCCGGUGAACCUGCGAAUUCUGCUGUAUAUCUC, the self-cleavage was 0.06. Work on UAACAGGGGGCCACAGCAGAAGCGUUCACGCCGCACCCCCUGUCAGAUUCUGAUGAAUCUGCGAAUUCUGCUGAAUAUCUC yielded a self-cleavage of 0.09. With UAACAGGGGGCCACAGCAGAAGCGUUCACGCCGCAGCCCCCGUCAGAUUCUGGUGAAUCUGCGAAUUCUGCUGAACAUCUC the self-cleavage was 1.23. Variant UAACAGGGGGCCACAGCAGAAGCGUUCACGCCGCAGCCCCUGUCAGAUUCUGGUGAAUCUGCACAUUCUGCUGUAUAUCUC has a self-cleavage of 0.15. In the case of UAACAGGGGGCCACAGCAGAAGCGUUCACGCCGCAGCCCUUGUCAGAUUCUGGCGAGUCUGCGAAUUCUGCAGUAUAUCUC, the self-cleavage is reported as 0.29. With UAACAGGGGGCCACAGCAGAAGCGUUCACGCCGCAGCCCCUGACAGAUUCUGGUGAAUCUGCGGAUUCUGCUGUAUAUCUC the self-cleavage was 0.63. In the case of UAACAGGGGGCCACAGCAGAAGCGUUCACGCCGCAGCCCCUGACAGAUUCCGGUGAACCUGCGAAUUCUGCUGUAUAACUC, the self-cleavage is reported as 0.24. Variant UAACAGGGGGCCACAGCAGAAGCGUUCACGCCGCAGCCCCUGUCAGAUUCUGGUGAAUCUGCUAAUUCUGCUGUAUAUCCC has a self-cleavage of 1.01. In the case of UAACAGGGGGCCACAGCAGAAGCGUUCACGCCGCAGCCCCGGUCAGAUACUGGUGAAUCUGCGUAUUCUGCAGUAUAUCUC, the self-cleavage is reported as 0.12. Work on UAACAGGGGGCCACAGCAGAAGCGUUCACGCCGCAGCCCCGGUCAGAUUCUGGUGAAUCUGCGAAUUCUGCUGCAUAUCUC yielded a self-cleavage of 0.53. Work on UAACAGGGGGCCACAGCAGAAGCGUUCACGCCGCAGCCCCCGUCAGAUUCUGGUGAGUCUGUGAAUUCUGCUGUAUAUCUC yielded a self-cleavage of 0.14. In the case of UAACAGGGGGCCACAGCAGAAGCGUUCACGCCGCACCCCCUGUCAGGUUCUGAUGAAUCUGCGAUUUCUGCUGUAUAUCUC, the self-cleavage is reported as 0.12. In the case of UAACAGGGGGCCACAGCAGAAGCGUUCACGCCGCAGCCCCUGCCAGUUUCUGGUGAAUCCGCGAAUUCUGCUGUAUAUCUC, the self-cleavage is reported as 0.09. With UAACAGGGGGCCACAGCAGAAGCGUUCACGCCGCAACCCCUGUCAGAUUCUGGUGAAUCUGCGAAUCCUGCUGUUUAUCUC the self-cleavage was 0.05. In the case of UAACAGGGGGCCACAGCAGAAGCGUUCACGCCGCAGCCCUUGUCAGACUCUGGUGGUUCUGCGAAUUCUGCUGUAUAUCUC, the self-cleavage is reported as 0.15. In the case of UAACAGGGGGCCACAGCAGAAGCGUUCACGCCGCAGCCCCUGUCAGAUUCUGGUUAAUCUGCGAAUUCUACUGUAUAUCUC, the self-cleavage is reported as 0.34. UAACAGGGGGCCACAGCAGAAGCGUUCACGCCGCAGCCCCCGUCAGAUUCUGGUGAAUCUGCGAACUCUGCUGUAUAUCAC showed a self-cleavage of 0.23. In the case of UAACAGGGGGCCACAGCAGAAGCGUUCACGCCGCAGCCCCUGUCAGAUUAUGGUGACUCUGCGAAUUCUGCUGUAUAUCUC, the self-cleavage is reported as 0.31. For UAACAGGGGGCCACAGCAGAAGCGUUCACGCCGCAGCCCCUGACAGAUUCUGGUGAAUCUGCGAGUUCUGCUGUAUACCCC, the self-cleavage was 0.43. In the case of UAACAGGGGGCCACAGCAGAAGCGUUCACGCCUCAGCCCCUGUCAGAUUCUGGUGAAUCUGCGUAUUCUACUGUAUAUCUC, the self-cleavage is reported as 0.07. Work on UAACAGGGGGCCACAGCAGAAGCGUUCACGCCGCAGCCCCCGCCAGAUUCUGGUGAAUCUGCGAAUUCUGCUGUAUACCUC yielded a self-cleavage of 0.3. UAACAGGGGGCCACAGCAGAAGCGUUCACGCCGCAGCCCCUGCCAGAUUCUGGUGAAUCUGCGGAUUCUGCUGUAUAUCUC showed a self-cleavage of 0.24. Work on UAACAGGGGGCCACAGCAGAAGCGUUCACGCCGCAGCCCCUGUCAGAUUCUCGUGGAUCUGCGAAUUCUGCUGUAUACCUC yielded a self-cleavage of 0.29. UAACAGGGGGCCACAGCAGAAGCGUUCACGCCGCAGCCCCUGUCAGAUUCUGGUGAAUCUGCCAAUCCUGCUGUAUAUCUC showed a self-cleavage of 0.12.
